# Assay results reported in PubChem BioAssay (NCI).
#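 Step 1: Grow cells in 96-well plates. Step 2: Expose to compound for 48 hours at 5 concentrations. Step 3: Interpolate endpoints linearly; if unreached, use highest concentration. GI50 marks 50% less growth.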 A number of entries come with more than one value. The list is limited to them. There may be further records. A record mostly stands for its own series of concentrations, which the source does not state; some values may only mark the edge of a range.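 The concentration for full growth arrest is given as TGI.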
# How the values were obtained:
# Assay in all cases: NCI tumour cell line growth inhibition, 48 h
# HOP-62 NSCLC = test system: HOP-62 NSCLC
# U251 CNS = test system: U251 CNS
# A549 NSCLC = test system: A549 NSCLC
# LXFL 529 NSCLC = test system: LXFL 529 NSCLC
# OVCAR-5 ovarian = test system: OVCAR-5 ovarian
# NCI-H226 lung = test system: NCI-H226 lung
# MDA-MB-231 breast = test system: MDA-MB-231 breast
# OVCAR-4 ovarian = test system: OVCAR-4 ovarian
# SK-MEL-2 melanoma = test system: SK-MEL-2 melanoma
# M14 melanoma = test system: M14 melanoma
# SR leukemia = test system: SR leukemia
# SF-268 CNS = test system: SF-268 CNS
# OVCAR-8 ovarian = test system: OVCAR-8 ovarian
# HL-60(TB) leukemia = test system: HL-60(TB) leukemia
# SNB-75 CNS = test system: SNB-75 CNS
# CAKI-1 renal = test system: CAKI-1 renal
# K-562 leukemia = test system: K-562 leukemia
# SW-620 colon = test system: SW-620 colon
# RPMI-8226 leukemia = test system: RPMI-8226 leukemia
# NCI-H522 lung = test system: NCI-H522 lung
# UACC-257 melanoma = test system: UACC-257 melanoma
# UACC-62 melanoma = test system: UACC-62 melanoma
# HCT-15 colon = test system: HCT-15 colon
structure (smiles),measurement,setting,value
COc1cccc2c1C(=O)c1c(O)c3c(c(O)c1C2=O)C[C@@](O)(C(=O)CO)CC3OC1CC(NCCCCC(OC(C)=O)OC(C)=O)C(O)C(C)O1 (some centres undefined),TGI,HOP-62 NSCLC,4.79 nM and 184 nM
same,TGI,U251 CNS,4.52 nM and > 1 µM
same,TGI,A549 NSCLC,6.63 nM and > 1 µM
same,TGI,LXFL 529 NSCLC,5.56 nM and > 1 µM
COC(=O)C12CC(NC(=O)c3csc([C@@H](C[C@H](C(C)C)N(C)C(=O)[C@@H](NC(=O)[C@H]4CCCCN4C)C(C)C)OC(C)=O)n3)(C1)C2,GI50,OVCAR-5 ovarian,22.3 nM and 957 nM
same,TGI,NCI-H226 lung,431 nM and > 33.3 µM
same,TGI,MDA-MB-231 breast,86.2 nM and > 33.3 µM
same,GI50,OVCAR-4 ovarian,181 nM and > 33.3 µM
COc1ccc(CN[C@H]2CCc3cc(OC)c(OC)c(OC)c3-c3ccc(SC)c(=O)cc32)c(OC)c1OC,TGI,SK-MEL-2 melanoma,917 nM and 86.7 nM
same,TGI,M14 melanoma,190 nM and 11.9 µM
same,TGI,SR leukemia,61.4 nM and > 100 µM
same,TGI,SF-268 CNS,225 nM and 24.1 µM
same,TGI,OVCAR-8 ovarian,93.3 nM and 17.2 µM
same,TGI,HL-60(TB) leukemia,68.6 nM and 4.43 µM
same,TGI,SNB-75 CNS,69.8 nM and > 100 µM
COc1cc2cc(C(=O)N3C[C@H](CCl)c4c3cc(O)c3ccccc43)[nH]c2c(OC)c1OC,TGI,CAKI-1 renal,3.26 µM and 23.5 nM
same,TGI,K-562 leukemia,788 nM and > 100 µM
same,TGI,SW-620 colon,2.12 µM and 51 nM
same,TGI,RPMI-8226 leukemia,400 nM and 31.7 nM
same,TGI,M14 melanoma,429 nM and > 100 µM
same,TGI,NCI-H522 lung,390 nM and 36.9 nM
same,TGI,UACC-257 melanoma,415 nM and > 100 µM
same,TGI,UACC-62 melanoma,244 nM and > 100 µM
same,TGI,HCT-15 colon,7.06 µM and > 100 µM
